Bounds are passed on as bounds.

This is an account of results in patent US20120184488A1 (CASE WESTERN RESERVE UNIVERSITY, published 2012).

The target of assay [1] is T1, Type I insulin-like growth factor receptor.
T1 construct: also called IGFR; IGF Type I receptor
The assay can be described thus: competitive displacement, antibody-capture microtiter plate, IGFR. Here is the method: Microtiter strip plates (Nunc Maxisorb) were incubated overnight at 4° C. with AU5 IgG (100 μl/well of 40 mg/ml in phosphate-buffered saline). Binding data were analyzed by a two-site sequential model. A corresponding microtiter plate antibody assay using the IGF Type I receptor was employed to assess cross-binding to this homologous receptor.

For assay [2], the target named is T1, Type I insulin-like growth factor …. The assay can be described thus: receptor-binding assay, IGFR.
In assay [3] the target is T2, Human Insulin Receptor Isoform A (human).
T2 construct: also called HIRA
The assay is described as follows: receptor-binding assay, HIRA.

The target in assay [4] is T1, Type I insulin-like growth factor …. The assay can be described thus: receptor-binding assay, IGFR. The source holds these as a separate data set.

B1: His^A4-His^A8-His^B1-insulin (ligand)
chain 1: not shown
chain 2: not shown
notes: also called His^B1-His^A4-His^A8-ins
With B1, the “relative affinity for IGFR (percent of IGF-I)” value in assay [1] was determined as 0.05%.

B2: [His^A4, His^A8]-KP insulin (ligand)
chain 1: not shown
chain 2: not shown
notes: also called HisA4, A8 KP-ins
As to B2, the “fold reduction of affinity in comparison to HI” value in assay [2] was greater than 4 fold. For the same molecule, the results for the Kd in assay [3] and in assay [4] were 0.016 nM and 65.3 nM, respectively.

B3: insulin glargine (Lantus) (ligand)
chain 1: not shown
chain 2: not shown
notes: also called [Gly^A21, Arg^B31, Arg^B32]-insulin
On to B3, for which the “relative affinity for IGFR (percent of IGF-I)” value in assay [1] worked out at 0.92%.
